Residue numbers refer to the chain shown, from its start.
B1: hu-Lab322H3-huFc (Fc fusion)
chain: EVQLVESGGGLVQPGRSLRLSCAASVLNLDYYAITWFRQAPGKEREGVSCIQGRGTSTNYADSVKGRFTISRDRAKKSAYLQMNSLRAEDTALYYCAVRYVSYGRNTACGLLPESVDHWGQGTMVTVSS[human IgG1 Fc with C220S (EU numbers) not listed]
B2: hu-Lab322H4-huFc (Fc fusion)
chain: B1 chain with E1Q, V2L
B3: hu-Lab322H5-huFc (Fc fusion)
chain: B1 chain with L93T, M124Q
B4: hu-Lab322H6-huFc (Fc fusion)
chain: B1 chain with R87K, A88P
B5: hu-Lab306H4-huFc (Fc fusion)
chain: EVQLVESGGGLVQPGGSLRLSCAASGFTLDDYAIGWFRQAPGKEREGVICLTSGGLPKYADSVKGRFTISRDNSKNTLYLQMNSLRAEDTAVYYCAASGATSRWNCPPQYDHWGQGTMVTVSS[human IgG1 Fc with C220S (EU numbers) not listed]
B6: hu-Lab306H5-huFc (Fc fusion)
chain: B5 chain with A24T
B7: hu-Lab306H6-huFc (Fc fusion)
chain: B5 chain with S74A
B8: hu-Lab306H7-huFc (Fc fusion)
chain: B5 chain with Q81R

Molecular target: T1, human GUCY2C protein, full length, on cells (human, UniProt P25092 24-1073)
T1 construct: whole, on cells; also called endogenous tumor cells HT55
Assay: FACS on 293T-hGUCY2C cells, MFI
Protocol: Then a complete medium was added to stop the digestion, and the cells were blown into a single cell suspension. After counting, the cells were centrifuged, and the cell pellet was resuspended to 2×10⁶ cells/mL in an FACS buffer (PBS+2% fetal bovine serum), and added to a 96-well FACS reaction plate at 100 μL/well. The plate was centrifuged, and the supernatant was discarded. An antibody sample to be tested (diluted in a 5-fold gradient from a starting concentration of 100 nM) was added at 50 μL/well and uniformly mixed with the cells, and the mixture was incubated at 4° C. for 1 h. […] The results were tested and analyzed by FACS (FACS Canto™, purchased from BD) after the plate was centrifuged and washed 3 times with a PBS buffer and resuspended with 100 μL of PBS. Data analysis was performed by software (FlowJo) to obtain the mean fluorescence intensity (MFI) of the cells. Then, analysis was performed by software (GraphPad Prism8), data were fitted, and EC50 values were calculated. As shown in A-C in FIG. 14, PF1608-hIgG1 binds strongly to GUCY2C at the protein level, but weakly at the cellular level. The humanized antibodies of the present application are all capable of binding effectively to recombinant cells expressing human GUCY2C protein and substantially maintain the equivalent binding ability of the recombinant antibodies.

Row | Binder | EC50 (read off the curve) [nM]
1 | B1 | ~1
2 | B2 | ~1
3 | B3 | ~1
4 | B4 | ~1
5 | B5 | ~2
6 | B6 | ~2
7 | B7 | ~2
8 | B8 | ~2

Molecular target: T2, Human GUCY2C ECD (his-tagged human GUCY2C protein extracellular domain fusion protein) (human, UniProt P25092 partial chain)
T2 construct: also called human GUCY2C-his; human GUCY2C-His
Assay: SPR Biacore, antibody on Protein A, antigen injected
Protocol: The strength of antibody-antigen binding was assayed with a BIAcore 8K instrument using a Protein A capture method. First, Protein A was immobilized onto a CM4 chip (purchased from GE, BR-1005-34) using an amino coupling method. According to the instruction of the Amine Coupling Kit (purchased from GE, BR100633), NHS and EDC were mixed with HBS-EP+pH 7.4 as a mobile phase to activate the chip for about 600 s; the Protein A was diluted to 50 μg/mL with 10 mM sodium acetate (pH 4.5) and injected for 600 s, and finally, the remaining activated sites were blocked with ethanolamine. Then, the affinity of the antibody for the antigen was assayed using a multi-cycle kinetic method; in each cycle, first, the antibody to be tested was captured using the Protein A chip, and then a single concentration of antigen protein was injected. The association and dissociation processes of the antibody with the antigen protein were recorded, and finally, the chip was regenerated using Glycine pH 1.5, wherein the mobile phase was HBS-EP+(10 mM HEPES, 150 mM NaCl, 3 mM EDTA, 0.05% surfactant P20), the flow rate was 30 μL/min, the regeneration time was 30 s, and the assay temperature was 25° C. Finally, according to a 1:1 binding model, the data were analyzed, and the antibody-antigen binding kinetics parameters, including the association rate constant Ka, the dissociation rate constant Kd, the equilibrium dissociation constant KD, and the maximum binding signal Rmax, were fitted.
(§1) After the finally obtained various humanized antibodies were expressed and purified, the affinities of the humanized antibodies for the human and monkey GUCY2C proteins were separately assayed according to the method in Example 4.6.

Row | Binder | Kd [nM] | koff [s⁻¹] | kon [M⁻¹ s⁻¹]
9 | B1 | 18.8 | 0.000155 | 8240
10 | B2 | 7.28 | 5.52e-05 | 7580
11 | B3 | 19.5 | 0.000159 | 8160
12 | B4 | 18.7 | 0.000159 | 8510
13 | B5 | 8.34 | 0.000929 | 111000
14 | B6 | 7.19 | 0.000786 | 109000
15 | B7 | 9.87 | 0.00109 | 111000
16 | B8 | 8.36 | 0.001 | 120000

Molecular target: T2, Human GUCY2C ECD (his-tagged human …)
Assay: ELISA, plate coated with human GUCY2C-his, OD450
Protocol: To assay the binding activity of the humanized antibodies to human GUCY2C-his protein, a human GUCY2C-his protein was diluted with PBS to a final concentration of 2 μg/mL and then added to a 96-well ELISA plate at 50 μL/well. The plate was sealed with a plastic film and incubated at 4° C. overnight. The next day, the plate was washed 2 times with PBST, and a blocking buffer [PBS+2% (w/w) BSA] was added for blocking at room temperature for 2 h. The blocking buffer was discarded, and the plate was washed 2 times with PBST. An antibody to be tested or a control antibody diluted in a 1:3 gradient from a starting concentration of 100 nM was added at 50 μL/well. After incubation at 37° C. for 1 h, the plate was washed 3 times with PBST. A horseradish peroxidase (HRP)—labeled secondary antibody (purchased from Merck, Cat. No. AP113P) was added for incubation at 37° C. for 1 h, and the plate was washed 5 times with PBST. A TMB substrate was added at 50 µL/well for incubation at room temperature for 5-10 min, and then a stop solution (1.0 M HCl) was added at 50 μL/well. OD450 nm values were read using an ELISA plate reader (Multimode Plate Reader, EnSight, purchased from Perkin Elmer).

Row | Binder | EC50 (read off the curve) [nM]
17 | B1 | ~0.06
18 | B2 | ~0.06
19 | B3 | ~0.06
20 | B4 | ~0.06

Molecular target: T3, Cyno GUCY2C ECD (his-tagged cynomolgus monkey GUCY2C protein extracellular domain fusion protein) (cynomolgus monkey, UniProt P25092 partial chain (human entry))
T3 construct: also called monkey GUCY2C-his; monkey GUCY2C-His
T3 chain: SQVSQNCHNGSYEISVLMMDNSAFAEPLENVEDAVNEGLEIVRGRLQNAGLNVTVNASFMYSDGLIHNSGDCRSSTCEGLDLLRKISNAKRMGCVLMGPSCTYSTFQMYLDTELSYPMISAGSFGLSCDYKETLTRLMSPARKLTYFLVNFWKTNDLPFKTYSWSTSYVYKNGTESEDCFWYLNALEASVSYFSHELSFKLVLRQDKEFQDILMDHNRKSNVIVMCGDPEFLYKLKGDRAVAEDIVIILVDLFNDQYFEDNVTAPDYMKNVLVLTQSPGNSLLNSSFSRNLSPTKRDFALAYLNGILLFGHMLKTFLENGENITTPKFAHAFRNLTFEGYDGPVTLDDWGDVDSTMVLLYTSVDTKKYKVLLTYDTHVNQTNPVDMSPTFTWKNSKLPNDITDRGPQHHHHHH
Assay: ELISA, plate coated with monkey GUCY2C-his, OD450

Row | Binder | EC50 (read off the curve) [nM]
21 | B5 | ~0.1
22 | B6 | ~0.1
23 | B7 | ~0.1
24 | B8 | ~0.07

Molecular target: T3, Cyno GUCY2C ECD (his-tagged cynomolgus …)
Assay: ELISA, plate coated with monkey GUCY2C-his, OD450
Remark: another data set of the same source

Row | Binder | EC50 (read off the curve) [nM]
25 | B1 | ~0.08
26 | B2 | ~0.07
27 | B3 | ~0.07
28 | B4 | ~0.07

Molecular target: T1, human GUCY2C protein, full length, on …
Assay: FACS on HT55 tumor cells (endogenous GUCY2C), MFI

Row | Binder | EC50 (read off the curve) [nM]
29 | B5 | ~1
30 | B6 | ~1
31 | B7 | ~1
32 | B8 | ~1

Molecular target: T2, Human GUCY2C ECD (his-tagged human …)
Assay: BLI Gator, antibody on anti-human Fc probe, antigen in solution
Protocol: (§2) Next, we measured the affinity of the recombinant antibody by another method, and the specific procedures were as follows: the binding strength of the antibody to the antigen was assayed by acquiring and analyzing the signal change of the reflection interference spectrum on the surface of the optical probe by using thin film interference technology. First, the probe was equilibrated for 300 s with HBS-T+pH 7.4 (0.02% tween) as the mobile phase. 2 μg/mL of the antibody to be tested was captured by an anti-human FC probe (purchased from ProbeLife, PL168-160003) for 240 s, and then antigen proteins with the concentration of 200 nM and diluted two-fold were injected. Kon for 300 s and Koff for 600 s. The association and dissociation processes of the antibody with the antigen protein were recorded, and finally, the chip was regenerated using Glycine pH 2.0 (purchased from GE), wherein the mobile phase was HBS-T+pH 7.4 (0.02% tween), the regeneration time was 5 s, and the assay temperature was 30° C. Finally, according to a 1:1 binding model, the data were analyzed, and the antibody-antigen binding kinetics parameters, including the association rate constant Ka, the dissociation rate constant Kd, the equilibrium dissociation constant KD, and the maximum binding signal Rmax, were fitted. The association rate (Ka), dissociation rate (Kd), and binding affinity (KD) of the recombinant antibodies with the human GUCY2C and monkey GUCY2C proteins are shown in Table 6.
as §1

Row | Binder | Kd [nM] | koff [s⁻¹] | kon [M⁻¹ s⁻¹]
33 | B1 | 0.717 | 0.000154 | 215000
34 | B2 | 0.334 | 6.86e-05 | 205000
35 | B3 | 0.782 | 0.000173 | 221000
36 | B4 | 0.797 | 0.000179 | 224000
37 | B5 | 1.92 | 0.000513 | 267000
38 | B6 | 1.77 | 0.000479 | 270000
39 | B7 | 2.01 | 0.000564 | 281000
40 | B8 | 2.05 | 0.000554 | 271000

Molecular target: T3, Cyno GUCY2C ECD (his-tagged cynomolgus …)
Assay: as above
Protocol: as §2, §1

Row | Binder | Kd [nM] | koff [s⁻¹] | kon [M⁻¹ s⁻¹]
41 | B1 | 1.27 | 0.000275 | 216000
42 | B2 | 0.529 | 0.000109 | 207000
43 | B3 | 1.36 | 0.000285 | 210000
44 | B4 | 1.31 | 0.000278 | 212000
45 | B5 | 1.53 | 0.000479 | 313000
46 | B6 | 1.44 | 0.000431 | 299000
47 | B7 | 1.68 | 0.000519 | 309000
48 | B8 | 1.38 | 0.000415 | 301000
